These results are taken from ChEMBL document CHEMBL4888484, “Replenishing the malaria drug discovery pipeline: Screening and hit evaluation of the MMV Hit Generation Library 1 (HGL1) against asexual blood stage Plasmodium falciparum ,using a nano luciferase reporter read-out” (2022).

SMILES strings stand for the structures. Among all 150,000 compounds or so, about 540 (0.36%) showed an effect of 50% or more. The list shows a part of the results.

Usually % Inhibition stands for the change of the read-out against control, counted positive when it falls.

For the experiment, the system named is Plasmodium falciparum. Description: Primary screen in NF54 nanoGlo assay, in single point, at 2uM, 72h; a lower Z score goes with more inhibition. Format: functional, Erythrocyte. To be noted: timepoint 72 hour.
For `O=C(N1CCCC1)N1CC[C@]2(O)CCN(c3noc(-c4ccccc4)n3)C[C@@H]2C1`, the “% Inhibition” value is given as -6% and the Z score is given as 1.11.
On the same counts, the results for `O=C(NCc1cc(Br)c[nH]1)c1ccccc1Br` are -1% and 0.14.
The corresponding values for `CC(C)c1cc(C(=O)N2CCCCC2)nc2ccnn12` are -3% and 0.57.
On the same counts, the results for `N#Cc1ccc(C(C(N)=O)N2CCC2c2ccc(Cl)cc2)cc1` (configuration not stated) are 1% and -0.15.
As for `O=C(c1c[nH]nc1-c1ccccc1)N1CC(N2CCOCC2)C1`, the “% Inhibition” value is 5% and the Z score is -1.09.
On the same counts, the results for `CC(C)(CO)[C@H](CNC1Cc2ccccc2C1)c1ccccc1` are -3% and 0.29.
On the same counts, the results for `Cc1ccc(-c2noc([C@@H]3C[C@@H](O)CN3)n2)cc1` are 1% and -0.2.
On the same counts, the results for `Cc1nn(Cc2ccccc2)c(Cl)c1CN1CCC(NS(C)(=O)=O)CC1` are -12% and 1.18.
As to `CC1(C)C(=O)NCCN1C(=O)c1cc2cc(F)ccc2o1`, the “% Inhibition” value came out at 12% and the Z score is listed as -1.39.
In the case of `COCc1nsc(N2CCC3CCC(C2)N3Cc2ccccc2)n1` (configuration not stated), the “% Inhibition” value is -1% and the Z score worked out at 0.11.
Consider `O=c1[nH]c(CCN2CCOc3ccccc32)nc2ccccc12`, for which the “% Inhibition” value was 34% and the Z score is given as -3.8.
On the same counts, the results for `CCC(CC)C(=O)NCCCN1CCOCC1` are -4% and 0.57.
On the same counts, the results for `c1cc(-c2ccc(-c3ccn[nH]3)cc2)cc(-n2cnnc2)c1` are -18% and 2.36.
On the same counts, the results for `Cc1ccc(C(=O)N2CCC(CC(=O)N3CCOCC3)CC2)c(O)c1` are -9% and 1.48.
For the compound `CC(C)c1ocnc1C(=O)NS(=O)(=O)N1CCCCCCC1`, the “% Inhibition” value was 3% and the Z score is -0.41.
The corresponding values for `CC(C)c1ccc(NCc2cccnc2Oc2ccc(F)c(F)c2)nn1` are -8% and 0.72.
In the case of `CC(C)(C)CNC1CCOCC1C1CCCN1C(=O)OC(C)(C)C` (configuration not stated), the “% Inhibition” value was -7% and the Z score is 0.95.
The corresponding values for `COC[C@H]1C[C@@H](NC(=O)c2ccc(OC)cc2)[C@H](O)[C@@H]1O` are 4% and -0.7.
With `CC(=O)c1ccc(N2CCOCC2)c(-c2ccc3c(c2)OCCO3)c1`, the “% Inhibition” value was -5% and the Z score was found to be 0.86.
The corresponding values for `COc1ccccc1C1(CNC(=O)c2snnc2C)CCOCC1` are -15% and 1.66.
On the same counts, the results for `CN(CC(F)(F)F)C(=O)CN1CCOC2CCCC21` (configuration not stated) are -9% and 1.18.
On the same counts, the results for `Cc1nc(C)c(CCN[C@@H](C)c2cc3ccccc3o2)s1` are -2% and 0.34.
Take `C=CCNC(=O)c1cccnc1-c1c[nH]c2c(C)cccc12`: the “% Inhibition” value is -11% and the Z score worked out at 1.05.
The corresponding values for `CCOC(=O)c1cc2n(n1)C[C@@](C)(C(=O)NCCOC)N(c1cccc(F)c1)C2=O` are 10% and -1.14.
Regarding `C[C@@H](Cc1ccccc1C(F)(F)F)N(C)C(=O)c1cc(O)ccn1`, the “% Inhibition” value is listed as -13% and the Z score was 2.05.
On the same counts, the results for `Cc1nsc(N2CCOCC2CC(C)O)n1` (configuration not stated) are 0% and -0.05.
The corresponding values for `CCc1nc(CNS(=O)(=O)C[C@@]23CC[C@@H](CC2=O)C3(C)C)cs1` are -8% and 0.82.
The corresponding values for `Cc1cccc(C[C@H](C)N2CCC(CCC(=O)N3CCOCC3)CC2)n1` are -8% and 0.72.
In the case of `CN(C)c1ccnc(NC(=O)N2CCCC2CC(O)c2ccco2)n1` (configuration not stated), the “% Inhibition” value is recorded as -4% and the Z score is 0.52.
On the same counts, the results for `CCN1CC(C)N(C(=O)c2sccc2C)CC1C` (configuration not stated) are 1% and -0.1.
On the same counts, the results for `COC(=O)C1CN(C(C)c2ncc(C(C)(C)C)o2)C[C@@H](C)O1` (some centres not stated) are -7% and 0.99.
The corresponding values for `COCCn1cncc1CN1C(=O)OC[C@@H]1c1ccccc1` are -13% and 2.49.
On to `COCc1nsc(N2CCN(c3ccc(O)cc3)CC2)n1`, for which the “% Inhibition” value is on record as -32% and the Z score worked out at 3.8.
For `Cc1nsc2c1[C@@H](c1nc(C(C)C)cs1)CC(=O)N2`, the “% Inhibition” value is -7% and the Z score stood at 1.12.
On the same counts, the results for `Cn1cc(CN(C(=O)Nc2cccnc2)C2CC2)cn1` are 1% and -0.15.
On the same counts, the results for `NC(=O)c1c(NC2=NS(=O)(=O)c3ccccc32)sc2c1CCCC2` are -1% and 0.07.
The corresponding values for `CCC(C)NC(=O)CC(c1cccc2c1OCO2)c1c[nH]c2ccccc12` (configuration not stated) are 7% and -1.09.
As for `Cc1noc(C)c1S(=O)(=O)NCc1ccc(N(C)C)nc1`, the “% Inhibition” value is reported as -12% and the Z score came out at 1.11.
The corresponding values for `Cc1cccc(CNC(=O)Nc2nc(-c3ccccc3)no2)n1` are -7% and 1.15.
On the same counts, the results for `Cc1cc(-c2cc(S(=O)(=O)N3CCCCC3)c(C)s2)on1` are -13% and 1.26.
With `COc1ccc(S(=O)(=O)Oc2ccccc2CN(Cc2ccc(F)cc2)C(=O)C(C)C)cc1`, the “% Inhibition” value was -8% and the Z score is given as 1.12.
Turning to `CCN1CCN(C(=O)CN(C)C(=O)c2csc(Nc3cccc(Cl)c3Cl)n2)CC1`, the “% Inhibition” value is -14% and the Z score stood at 1.37.
For the compound `N#CC1CCN(C(=O)C[C@H]2CCCO2)CC1`, the “% Inhibition” value was found to be 5% and the Z score is reported as -0.68.
The corresponding values for `Cc1ccc(C)c(Cn2ccnc2CN(CCN2CCOCC2)C(=O)CC(C)C)c1` are -13% and 1.36.
For `Cc1ccccc1NS(=O)(=O)c1cc2n(c1)CCN(C)C2=O`, the “% Inhibition” value is -8% and the Z score worked out at 1.2.
The corresponding values for `Cc1ccc(NC(=O)COc2cc(C)c(C)nn2)c(Cl)c1` are -8% and 1.49.
On the same counts, the results for `Fc1ccc([C@@]2(c3noc(CCc4nc5ccccc5[nH]4)n3)CCOC2)cc1` are 3% and -0.55.
On the same counts, the results for `CC(C)CN1CC2(CCN(C(=O)[C@H]3CCc4nn(C)c(=O)n4C3)CC2)CC1=O` are -1% and 0.18.
As for `COc1c(C)cc(C)cc1-c1nc2c(cnn2C2CCN(C)CC2)[nH]1`, the “% Inhibition” value amounted to 2% and the Z score is recorded as -0.35.
On the same counts, the results for `CC[C@@H](CO)N1CCN(C2CCC(C(=O)OC(C)(C)C)CC2)CC1` (some centres not stated) are -8% and 1.57.
The corresponding values for `COc1ccccc1C1CC1c1nc(C2CC2)no1` (configuration not stated) are -4% and 0.37.
Regarding `Cc1ccc(NS(=O)(=O)c2cc(-c3[nH]nc(C)c3C)sc2C)c(C)c1`, the “% Inhibition” value is listed as -14% and the Z score is on record as 1.66.
The corresponding values for `C[C@@H](Cn1cc(Br)cn1)Nc1ccc2c(c1)COC2` are 3% and -0.36.
On the same counts, the results for `Cc1nnc(CNC(C2CCCC2)C2CCCC2)o1` are -13% and 1.32.
Regarding `CN1CCN(C(=O)N2CCC3(CCC(=O)N(CCc4ccncc4)C3)CC2)CC1`, the “% Inhibition” value is on record as -14% and the Z score is recorded as 1.57.
The corresponding values for `Cc1ccc(OCC(=O)NC2CCC(Oc3cnccn3)CC2)c(C)c1` (configuration not stated) are -3% and 0.46.
The corresponding values for `CNC(=O)c1n[nH]c2c1[C@@H](Cc1ccccc1)CC(=O)N2` are -9% and 1.17.
The corresponding values for `CC(=O)Nc1ccc(-c2cn([C@H](c3cccnc3)C(C)C)nn2)cc1` are -1% and 0.13.
As for `CC(=O)N1CCCN(C(=O)[C@@H]2COc3ccccc32)CC1`, the “% Inhibition” value is -10% and the Z score is given as 0.98.
On the same counts, the results for `O=C(N[C@@H](N1CCCCCC1)C(Cl)(Cl)Cl)c1ccccc1Cl` are -3% and 0.4.
On the same counts, the results for `CC(=O)Nc1c(C)nc(N2CCN(C)CC2)nc1C` are 2% and -0.26.
For the compound `O=C1CCc2cc(S(=O)(=O)CCC(=O)N3CC[C@H](CCOc4ccccc4F)C3)ccc2N1`, the “% Inhibition” value is -7% and the Z score is 1.27.
On the same counts, the results for `CC(C)c1ccc(N2CCN(C(=O)c3ccc(C(F)(F)F)cc3)[C@@H](C)C2=O)cc1` are 33% and -4.48.
On the same counts, the results for `COCCC[C@H]1CCCCN1S(=O)(=O)c1cccc(C(=O)N2CCC2)c1` are 1% and -0.17.
Regarding `Cc1cc(C)n(C)c(=O)c1C(=O)NC[C@H]1CCCO1`, the “% Inhibition” value is recorded as -13% and the Z score worked out at 1.46.
On the same counts, the results for `COC1CCN(CC(=O)N2CCCCCC2)CC1` are -13% and 1.31.
On the same counts, the results for `CC(C)c1nncn1CCNC(=O)C(C)(C)N1CCOCC1` are -2% and 0.29.
On to `CC(=O)Nc1cccc(C(=O)N2CCC[C@H]2c2ccncc2)c1`, for which the “% Inhibition” value is on record as 11% and the Z score is -1.24.
The corresponding values for `O=C(Nc1ccc2oc(-c3cncc(Br)c3)nc2c1)c1ccc2c(c1)OCO2` are -13% and 1.96.
As to `CC(C)(C(=O)Nc1cc(C(F)(F)F)c[nH]c1=O)S(=O)(=O)C1CC1`, the “% Inhibition” value was -5% and the Z score came out at 0.89.
On the same counts, the results for `Cc1cccc(-c2ccc(C(=O)O)n2C)c1` are -10% and 1.46.
The corresponding values for `Cc1n[nH]c(C)c1CCN1CCCN(c2nc3ccccc3s2)CC1` are 0% and -0.03.
On the same counts, the results for `Cc1cccc(-n2nnnc2C2(Nc3ccc4c(c3)OCO4)CCCC2)c1` are -4% and 0.75.
`CC(C)C[C@H]1CCCCCN1C(=O)c1[nH]c(=O)[nH]c(=O)c1N`: the “% Inhibition” value was 8% and the Z score was -1.2.
Take `Cc1cnc(C(=O)N2CCC[C@H]2Cn2nc(C)nc2C)c(C)c1`: the “% Inhibition” value is 6% and the Z score is recorded as -1.1.
The corresponding values for `CC[C@](C)(NCCN1C(=O)NC(C)(C)C1=O)c1nccs1` are -4% and 0.42.
On the same counts, the results for `c1cc2[nH]ncc2cc1NC1CC2CCC(C1)O2` (configuration not stated) are -15% and 2.28.
For `COC(=O)NCCn1nc(C(F)(F)F)c2c1CCOC2`, the “% Inhibition” value is listed as 27% and the Z score is -3.4.
`COc1cccc(C(=O)[N-]c2c[n+](-c3ccc(C)cc3)no2)c1`: the “% Inhibition” value worked out at 1% and the Z score is reported as -0.07.
On the same counts, the results for `CC(=O)N1C(=O)N(c2ccccc2)C2C1N(c1ccccc1)C(=O)N2C(C)=O` (configuration not stated) are -8% and 1.2.
On the same counts, the results for `CCNC(=NCc1ccc(OC)c(Cl)c1)NCC` are 4% and -0.37.
The corresponding values for `Cc1nc2c(c(=O)[nH]1)NC(=O)[C@H](CC(C)C)N2` are 38% and -4.9.
Turning to `O=C(O)CN(C(=O)C1CC1c1ccccc1OC(F)(F)F)C1CCOCC1` (configuration not stated), the “% Inhibition” value is -5% and the Z score is given as 0.76.
The corresponding values for `CCN(C(=O)Cc1c(C(=O)O)c(C)cn1C)c1cccc(Cl)c1` are 0% and -0.02.
As for `OC[C@@H](Cc1cccs1)Cn1ccnc1-c1cc(F)ccc1F`, the “% Inhibition” value is listed as -2% and the Z score is recorded as 0.41.
The corresponding values for `C[C@@H]1CCC[C@H](C)N1C(=O)CCOCC(F)(F)C(F)F` are -8% and 0.89.
